Here are results for 97 compounds from PubChem BioAssay AID1508642 (National Center for Advancing Translational Sciences (NCATS), 2021).

About 200 (0.47%) of roughly 43,000 compounds were called active. About 12% were inconclusive and are not listed. The call rests on the fitted dose curve; in most records, active means well fitted cell-killing curve with a large enough effect; inconclusive means small, poorly fitted or top-dose-only effect, or effect the other way; inactive means flat fitted curve, though single readings scatter. Some of the results follow.
On the % scale 0 is the no-effect control and ±100 the full control effect.

A short description of the test: Cell viability qHTS assay in S16 Pmp22-F2sN cells. Further: nearly all actives have a fitted effect of over 65% in size. As to conditions: S16 Pmp22-F2sN Schwann cells (luciferase reporters placed in the Pmp22 gene) viability, CellTiter-Glo, 24 h; series mostly up to 57.5 µM; activity change, negative = cytotoxicity: at the top concentration. Summed up: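 Rat S16 Schwann reporter line, 24 h treatment with library compounds delivered at 23 nL per well. Cell viability by CellTiter-Glo luminescence.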
Regarding `Cc1ccc(-n2ncc(C(=O)NCCCN3CCN(C)CC3)c2C2CCN(C(=O)OC(C)(C)C)CC2)cc1`, the “activity change, negative = cytotoxicity” value was inactive: -0.228%.
With `Cc1cc(C)c(NC(=O)CN2C(=O)CCn3nc(-c4cccn4C)cc32)c(C)c1` the figure was inactive: 0.286%.
For `Cc1ccc(Cl)cc1NC(=O)c1cc(-c2ccc3c(c2)OCCO3)on1` the value was inactive: -0.151%.
`Cc1cccc(NC(=O)CN(C)S(=O)(=O)c2cnc[nH]2)c1C`: the “activity change, negative = cytotoxicity” value was inactive: 0.943%.
With `Cc1cc(C)c(NC(=O)CSc2cn(CC(=O)N3CCOCC3)c3ccccc23)c(C)c1` the figure was inactive: 10.7%; with `CCCCNc1cc(N2CCN(C3CCCCC3)CC2)c2noc3c2c1C(=O)c1ccccc1-3`, inactive: 5.1%.
With `CCCCC(=O)N1CCN(c2nc3c(C)c(C)ccc3s2)CC1` the figure was inactive: 2.71%; with `COc1cccc(-n2c(SCC(=O)Nc3ccc(F)cc3F)nc3c([nH]c4ccccc43)c2=O)c1`, inactive: 2.68%; with `c1csc(-c2nc3ccccn3c2Nc2ccc3c(c2)OCCO3)c1`, inactive: -0.918%.
For `COc1ccc(S(=O)(=O)NCCS(=O)(=O)N2CCN(c3ccccc3F)CC2)cc1` the value was inactive: -19%; for `COc1ccc(CCNC(=O)c2ccc(Cn3c(=O)c4ccccc4n(Cc4ccccc4Cl)c3=O)cc2)cc1OC`, inactive: 11.4%; for `CCOc1cc(-c2ccc(OC(=O)c3ccc(Cl)cc3)c(OC)c2)cc(=O)c2c(C)oc(C)c12`, inactive: 1.38%.
In the case of `Cc1nnc(N2C(=O)c3oc4ccccc4c(=O)c3C2c2ccc(F)cc2)s1` (configuration not stated), the “activity change, negative = cytotoxicity” value is inactive: 15.9%.
With `Cc1c(C(=O)NCc2ccc(F)cc2)sc2nc(-c3ccccc3)cn12` the figure was inactive: -2.17%.
For the compound `Oc1c(C(c2ccc(Cl)cc2)N2CCCC2)sc2nc(-c3ccco3)nn12` (configuration not stated), the “activity change, negative = cytotoxicity” value was inactive: 5.06%.
For `CCOc1ccccc1C(=O)NCC(c1ccc(N(C)C)cc1)N1CCc2ccccc21` (configuration not stated) the value was inactive: 10.6%; for `COc1ccccc1CNC(=O)c1cccc(NC(=O)N2CCSc3ncccc32)c1`, inactive: -0.469%.
For `COc1cc(-c2nc3cccc(C)n3c2Nc2ccc3c(c2)OCCO3)ccc1O` the value was inactive: -0.17%.
With `CCCCOC(=O)c1ccc(NC(=O)CSc2nc3c(c(=O)[nH]2)CCC3)cc1` the figure was inactive: -5.8%.
Consider `CC(=O)c1ccc(N2CCN(c3ncnc4onc(-c5ccc(Cl)cc5)c34)CC2)cc1`, for which the “activity change, negative = cytotoxicity” value was inactive: -5.79%.
With `CCCCCn1c(=O)[nH]c2cc(C(=O)N3CCN(c4ccccc4F)CC3)ccc2c1=O` the figure was inactive: 1.64%.
With `CCOC(=O)c1cccc(Nc2nc(C(=O)OCC)nc3ccccc23)c1` the figure was inactive: -3.05%; with `Cc1ccc(NC(=O)c2cc(-c3cccs3)on2)cc1C`, inactive: -0.992%; with `CCN1CCN(CCCNC(=O)c2cnn(-c3ccc(C)cc3)c2C2CCN(C(=O)OC(C)(C)C)CC2)CC1`, inactive: 5%.
As for `CCOC(=O)c1[nH]c2ccccc2c1NC(=O)c1ccc(OCC)cc1`, the “activity change, negative = cytotoxicity” value is inactive: 3.64%.
For `Cc1ccc(-n2ncc3c(NCCCn4ccnc4)ncnc32)cc1` the value was inactive: 1.89%.
With `O=C(NC1CC(=O)N(c2ccccc2)C1)c1cc2ccccc2o1` (configuration not stated) the figure was inactive: -2.28%.
In the case of `O=C(Nc1nnc(S(=O)(=O)N2CCCC2)s1)c1ccc(F)cc1`, the “activity change, negative = cytotoxicity” value was inactive: 6.24%.
With `Cc1oc(-c2ccccc2)nc1CNS(=O)(=O)c1ccc(Cl)cc1` the figure was inactive: 2.28%; with `CCCCOc1ccccc1NC(=O)Cn1c(-c2cncs2)nc2ccccc21`, inactive: 8.99%; with `Cc1cccc(-c2nc(N3CCN(c4ccc(F)cc4)CC3)c3ccccc3n2)c1`, inactive: 2.27%.
For `CCOC(=O)c1cccc(NC(=O)c2cc3c(=O)n(Cc4cccnc4)ccc3nc2C)c1` the value was inactive: -1.24%; for `CN1CCN(Cc2c(O)ccc3cc(-c4ccccc4)c(=O)oc23)CC1`, inactive: 0.85%.
With `CCOc1ccc(-c2cc(C(=O)NCc3ccc(OC)cc3)c3c(-c4ccc(F)cc4)[nH]nc3n2)cc1` the figure was inactive: 3.46%; with `COc1ccc(C(=O)NCc2ccc3c(c2)CCN3C(=O)c2cccc(C)c2)cc1OC`, inactive: -8.09%.
Regarding `O=C(CCn1cccn1)Nc1cccc(C(F)(F)F)c1`, the “activity change, negative = cytotoxicity” value is inactive: -1.05%.
For `Cc1ccc(-n2c(=O)c3c(cnn3C)n(CC(=O)Nc3cc(C)ccc3C)c2=O)cc1` the value was inactive: 16.1%.
With `O=C(CCSCc1cnn(-c2ccccc2)c1-n1cccc1)NCc1ccc(Cl)cc1` the figure was inactive: -14.1%.
With `Cc1ccc(NC(=O)Cn2cc(C(=O)c3cccs3)c3ccccc32)cc1C` the figure was inactive: -6.72%; with `Cc1ccc(C(=O)c2cn(Cc3cccc(F)c3)c3nc(C)ccc3c2=O)cc1`, inactive: 23.2%; with `Cc1cccc(NS(=O)(=O)c2ccc(Cl)c(C(=O)Nc3ccccc3C)c2)c1`, inactive: 16.3%.
Take `CCCN(Cc1cccs1)C(=O)Nc1ccc(Br)c(C)c1`: the “activity change, negative = cytotoxicity” value is inactive: -3.03%.
For `COc1ccc(CCNC(=O)CSc2nc3ccccc3nc2Cc2ccc(Cl)cc2)cc1OC` the value was inactive: -4.21%; for `Cc1nc2sccn2c(=O)c1S(=O)(=O)N1CCN(c2ccc(F)cc2)CC1`, inactive: 9.29%.
With `COc1ccc(N(C(=O)c2ccc(OC)c(OC)c2)S(=O)(=O)c2ccc(Cl)cc2)cc1` the figure was inactive: -1.41%; with `Cc1cc(NS(=O)(=O)c2ccc(NC(=O)c3ccccc3C)cc2)nc(C)n1`, inactive: 4.81%.
For `Cc1ccc(C)c(NC(=O)CC2NCCNC2=O)c1` (configuration not stated) the value was inactive: 0.167%; for `CCc1ccc(NCc2cc3cc4c(cc3n(CC(=O)Nc3cccc(OC)c3)c2=O)OCO4)cc1`, inactive: 8.39%.
Consider `COCCNC(=O)Cn1nc(C)c2c(C)n(-c3ccc(C)cc3)nc2c1=O`, for which the “activity change, negative = cytotoxicity” value is inactive: 4.63%.
As for `CCc1ccc2ncc3c(-c4ccccc4)nn(-c4ccccc4)c3c2c1`, the “activity change, negative = cytotoxicity” value is inactive: 16.7%.
For `CCCC(C(=O)NCc1cccc(Cl)c1)N1Cc2ccccc2C1=O` (configuration not stated) the value was inactive: -9.43%; for `Cc1ccn2c(=O)cc(COc3ccc(NC(=O)COc4ccc(Cl)cc4)cc3)nc2c1`, inactive: 1.34%; for `CCCN(CCC)C(=O)Cn1c(=O)n(-c2cccc(OC)c2)c(=O)c2c3c(sc21)CCCC3`, inactive: 13.6%.
With `Cc1csc2nc(COC(=O)c3cccc(NC(=O)COc4ccc(Cl)cc4)c3)cc(=O)n12` the figure was inactive: 8.82%; with `O=C(CCCCn1c(=O)c2ccccc2n(Cc2ccccc2Cl)c1=O)NCCc1ccccc1`, inactive: 21.7%.
In the case of `N#Cc1ccccc1Cn1c(=O)n(CCCC(=O)NCc2ccc3c(c2)OCO3)c(=O)c2sccc21`, the “activity change, negative = cytotoxicity” value was inactive: 1.26%.
For `Cc1ccc2nc(-c3ccc(Cl)c(NC(=O)COc4cccc(C)c4C)c3)oc2c1` the value was inactive: 7.1%; for `Cc1cccc(NC(=O)c2ccc3snnc3c2)c1`, inactive: -4.01%; for `Cc1cc2c(cc1NS(=O)(=O)c1ccc(F)cc1)n(C)c(=O)c(=O)n2C`, inactive: 26.7%.
Take `CCc1cccc(C)c1NS(=O)(=O)c1cc2[nH]c(=O)c(=O)[nH]c2cc1C`: the “activity change, negative = cytotoxicity” value is inactive: 18.6%.
Turning to `CCN(CC)c1ccc(NC(=O)CCS(=O)(=O)c2cc3c(cc2Cl)NC(=O)CO3)c(C)c1`, the “activity change, negative = cytotoxicity” value was inactive: 13.3%.
For `CCCc1cc(=O)[nH]c2nnc(SC(C)CC)n12` (configuration not stated) the value was inactive: 0.704%; for `CCOC(=O)c1sc(NC(=O)/C=C/c2ccc(C(C)C)cc2)c(C(=O)OCC)c1C`, inactive: 27.1%.
With `COc1cccc(CNC(=O)CCc2c(C)nc3c(c(C)nn3-c3ccc(C)c(C)c3)c2C)c1` the figure was inactive: 2.25%; with `Cc1nc2c(-c3ccccc3)c(C)nn2c(C)c1CCC(=O)N1CCN(c2ccc(F)cc2)CC1`, inactive: 15.6%; with `Cc1c(Cl)cccc1NC(=O)COCc1cc(-c2ccc3c(c2)OCO3)on1`, inactive: 0.65%.
Turning to `CSc1ccc(CCNC(=O)c2ccc(-c3nc(COc4ccccc4)c(C)o3)cc2)cc1`, the “activity change, negative = cytotoxicity” value was inactive: 4.6%.
For `Cc1cccc(N2CCN(CCCNc3ncnc4onc(-c5ccc(Cl)cc5)c34)CC2C)c1` (configuration not stated) the value was inactive: 3.6%; for `COc1ccc(Cl)cc1N(C)C(=O)c1ccc2c(=O)n3c(nc2c1)CCCCC3`, inactive: 18.7%; for `COc1ccc(NC(=O)Cn2c(=O)n(CCC(=O)NCc3ccccc3OC)c(=O)c3ccccc32)cc1Cl`, inactive: 8.32%.
Regarding `Cc1ccc(Cn2ccn(Cc3ccccc3F)c(=O)c2=O)cc1`, the “activity change, negative = cytotoxicity” value was inactive: 3.34%.
Regarding `COc1ccc(CCNC(=O)CCn2c(=O)c3ccccc3n(Cc3cc(C)ccc3C)c2=O)cc1OC`, the “activity change, negative = cytotoxicity” value is inactive: -14.2%.
For `COc1ccc(N2CC(NC(=O)/C=C\c3ccccc3)CC2=O)cc1` (configuration not stated) the value was inactive: -0.187%.
For `O=C(Cn1c(SCCOc2ccccc2)nc2ccccc21)N1CCOCC1` the value was inactive: -4.02%.
For the compound `CC(=O)N1CCc2cc(CNC(=O)Cc3ccc(F)cc3)ccc21`, the “activity change, negative = cytotoxicity” value is inactive: 5.46%.
For `CCOc1ccccc1CNC(=O)C1CCN(C(=O)N2CC(CC)Oc3ccc(C)cc32)CC1` (configuration not stated) the value was inactive: -15.9%; for `O=C(/C=C/c1ccccc1)N1CCN(Cc2cc(=O)n3nc(-c4ccccc4F)sc3n2)CC1`, inactive: 18%; for `Cc1cc(OCCn2cc(C(=O)c3cccs3)c3ccccc32)ccc1Cl`, inactive: 13.5%.
With `Cn1ncc2c(N3CCN(c4cccc(Cl)c4)CC3)ncnc21` the figure was inactive: 0.417%; with `CCOC(=O)N1CCc2c(sc(NCc3sccc3C)c2C(=O)Nc2ccc(OC)cc2OC)C1`, inactive: 11.2%; with `Cc1cc(C)cc(NC(=O)C(Cc2ccccc2)NS(=O)(=O)c2ccc3c(c2)c(=O)n(C)c(=O)n3C)c1` (configuration not stated), inactive: 18.2%.
For `CCOc1ccc(Oc2nc(NCC(C)C)nc(N3CCOCC3)n2)nn1` the value was inactive: 0.41%; for `CCCCOC(=O)c1ccc(NC(=O)c2cc3c(=O)n4cccc(C)c4nc3s2)cc1`, inactive: 15.1%; for `Cc1c(C(=O)NCC(c2ccc(Cl)cc2)N2CCOCC2)oc2ccccc12` (configuration not stated), inactive: 2.82%.
With `CCCCN(C)CCNC(=O)c1c2c(nc3ccccc13)C(=O)N(C1CCCCC1)C2`, the “activity change, negative = cytotoxicity” value is inactive: 8.32%.
With `CCCNC(=O)CCc1nnc2ccc(N3CCN(c4cccc(OC)c4)CC3)nn12` the figure was inactive: 20.9%.
In the case of `Cc1cc(Cl)ccc1OCc1nc(-c2ccc(-n3cccc3)cc2)no1`, the “activity change, negative = cytotoxicity” value is inactive: -13.3%.
With `Cc1ccc(NC(=O)CCn2c(=O)c3cccn3c3ccccc32)cc1C` the figure was inactive: -18.6%.
With `Cc1ccc(-n2c(=O)c3cccnc3n2CC(=O)Nc2ccc(Br)cc2)cc1C` the figure was inactive: 11.6%; with `CCC(=O)N1CCc2cc(Br)cc(S(=O)(=O)CCC(=O)NCCc3cccc(C)c3)c21`, inactive: 6.4%.
For `Cc1ccc2c(=O)cc(C(=O)Nc3nc4ccc(Cl)cc4s3)oc2c1C` the value was inactive: 5.13%; for `COc1cccc(-c2ncnn2-c2sc3c(c2C#N)CCCCC3)c1OC`, inactive: 8.32%.
On to `CCN(C(=O)CSc1nc2ncccc2[nH]1)c1ccc(C(C)C)cc1`, for which the “activity change, negative = cytotoxicity” value was inactive: -2.58%.
For `O=C(COc1ccc(Cl)cc1)Nc1nnc(S(=O)(=O)N2CCc3ccccc32)s1`, the “activity change, negative = cytotoxicity” value was inactive: -0.0844%.
With `Cc1ccc(CN(C(=O)COc2ccc([N+](=O)[O-])cc2)c2ccccn2)cc1` the figure was inactive: -3.44%; with `CCN(CC)CCCNC(=O)c1cnc(SC)nc1-c1ccccc1`, inactive: 28.4%.
For `CCN(CC)CCCNC(=O)c1cn(C)c2ccc(S(=O)(=O)N(C)C3CCCCC3)cc2c1=O` the value was inactive: -2.13%.
